# Source: the supplement of paper PMC10369915
# Some of the results follow. No stated cut-off is given here; in the data, active = 3.2 or more and inactive = the rest. Only a few entries rise above the background.
# B1: HBB_Y146_K145E (peptide)
# chain: ALAHEYHGGGG
# B2: HBB_Y146_L142R (peptide)
# chain: ARAHKYHGGGG
# B3: HBB_Y36_L33V (peptide)
# chain: RLVVVYPWTQR
# B4: HBB_Y36_P37R (peptide)
# chain: RLLVVYRWTQR
# B5: HBB_Y36_Q40R (peptide)
# chain: RLLVVYPWTRR
# B6: HBB_Y36_V35D (peptide)
# chain: RLLVDYPWTQR
# B7: HBB_Y36_V35L (peptide)
# chain: RLLVLYPWTQR
# B8: HBB_Y36_W38G (peptide)
# chain: RLLVVYPGTQR
# B9: HBD_Y131 (peptide)
# chain: QMQAAYQKVVA
# B10: HBD_Y131_Q126E (peptide)
# chain: EMQAAYQKVVA
# B11: HBD_Y146_H147R (peptide)
# chain: ALAHKYRGGGG
# B12: HBD_Y36_P37H (peptide)
# chain: RLLVVYHWTQR
# B13: HBG1_Y36_R41K (peptide)
# chain: RLLVVYPWTQK
# B14: HBG2_Y36_R41G (peptide)
# chain: RLLVVYPWTQG
# B15: HBG2_Y36_T39P (peptide)
# chain: RLLVVYPWPQR
# B16: HCK_Y180_S183Y (peptide)
# chain: TTKGSYSLYVR
# B17: HCK_Y180_S183Y_YF (peptide)
# chain: TTKGSYSLFVR
# B18: HCK_Y411_E410K (peptide)
# chain: IEDNKYTAREG
# Target: SHP2 C-SH2 domain E139D
# Test: enrichment score (SH2-bound / input frequency) (ratio); bacterial display of known human phosphotyrosine sites (pTyr-Var adds point mutants) read by sequencing; higher = stronger binding; tyrosines were phosphorylated by kinases first
# Conditions: peptide library: pTyr-Var
# 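Further: displayed peptides selected on beads carrying the immobilized SH2 domain, with library peptides lacking any tyrosine serving as negative controls.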
row,Binder,enrichment score
1,B1,inactive: 0.973
2,B2,inactive: 0.73
3,B3,inactive: 1.15
4,B4,inactive: 0.274
5,B5,inactive: 0.177
6,B6,inactive: 1.16
7,B7,inactive: 1.98
8,B8,inactive: 1.47
9,B9,inactive: 0.706
10,B10,inactive: 0.715
11,B11,inactive: 0.512
12,B12,active: 3.49
13,B13,active: 4.21
14,B14,active: 4.02
15,B15,inactive: 2.27
16,B16,inactive: 0.839
17,B17,inactive: 0.931
18,B18,inactive: 0.636

# Target: SHP2 C-SH2 domain wild-type
# Test: as above
# Conditions: peptide library: pTyr-Var
row,Binder,enrichment score
1,B1,inactive: 0.98
2,B2,inactive: 0.82
3,B3,inactive: 1.06
4,B4,inactive: 0.236
5,B5,inactive: 0.352
6,B6,inactive: 1.13
7,B7,inactive: 1.41
8,B8,inactive: 1.44
9,B9,inactive: 0.905
10,B10,inactive: 0.618
11,B11,inactive: 0.605
12,B12,active: 3.27
13,B13,active: 3.58
14,B14,active: 3.71
15,B15,inactive: 2.12
16,B16,inactive: 0.818
17,B17,inactive: 0.705
18,B18,inactive: 0.577

# Target: SHP2 N-SH2 domain L43F
# Test: as above
# Conditions: peptide library: pTyr-Var
row,Binder,enrichment score
1,B1,inactive: 1.01
2,B2,inactive: 0.823
3,B3,inactive: 0.98
4,B4,inactive: 0.385
5,B5,inactive: 0.232
6,B6,inactive: 1.17
7,B7,inactive: 1.6
8,B8,inactive: 1.99
9,B9,inactive: 1.01
10,B10,inactive: 0.91
11,B11,inactive: 0.422
12,B12,active: 3.72
13,B13,active: 3.85
14,B14,active: 3.46
15,B15,inactive: 2.17
16,B16,inactive: 0.728
17,B17,inactive: 1.02
18,B18,inactive: 0.707

# Target: SHP2 N-SH2 domain T42A
# Test: as above
# Conditions: peptide library: pTyr-Var
row,Binder,enrichment score
1,B1,inactive: 1.04
2,B2,inactive: 0.693
3,B3,inactive: 1.35
4,B4,inactive: 0.241
5,B5,inactive: 0.187
6,B6,inactive: 0.873
7,B7,inactive: 1.67
8,B8,inactive: 1.46
9,B9,inactive: 0.844
10,B10,inactive: 0.704
11,B11,inactive: 0.46
12,B12,inactive: 2.52
13,B13,active: 3.29
14,B14,active: 3.38
15,B15,inactive: 1.87
16,B16,inactive: 0.632
17,B17,inactive: 0.481
18,B18,inactive: 0.552

# Target: SHP2 N-SH2 domain T52S
# Test: as above
# Conditions: peptide library: pTyr-Var
row,Binder,enrichment score
1,B1,inactive: 0.861
2,B2,inactive: 0.782
3,B3,inactive: 0.815
4,B4,inactive: 0.184
5,B5,inactive: 0.281
6,B6,inactive: 1.12
7,B7,inactive: 1.77
8,B8,inactive: 1.67
9,B9,inactive: 0.929
10,B10,inactive: 0.751
11,B11,inactive: 0.345
12,B12,active: 3.99
13,B13,active: 3.26
14,B14,active: 3.49
15,B15,inactive: 2.06
16,B16,inactive: 0.777
17,B17,inactive: 1.01
18,B18,inactive: 0.318

# Target: SHP2 N-SH2 domain wild-type
# Test: as above
# Conditions: peptide library: pTyr-Var
row,Binder,enrichment score
1,B1,inactive: 1.24
2,B2,inactive: 0.939
3,B3,inactive: 1.04
4,B4,inactive: 0.262
5,B5,inactive: 0.22
6,B6,inactive: 0.985
7,B7,inactive: 1.63
8,B8,inactive: 1.65
9,B9,inactive: 0.701
10,B10,inactive: 0.718
11,B11,inactive: 0.588
12,B12,inactive: 2.93
13,B13,active: 3.5
14,B14,active: 3.74
15,B15,inactive: 2.3
16,B16,inactive: 0.932
17,B17,inactive: 1.02
18,B18,inactive: 0.876
